Results as given in EP0013144A1, “Substituted diphenylamine derivatives, compositions and herbicidal uses thereof, and processes for their preparation” (ICI AUSTRALIA LIMITED, priority 1978, dated 1980).
The name of at least one read-out is uncertain.

Legend:
Type in all cases: in vivo
[1] = tested on: Japanese millet; test: Pre-emergence herbicidal activity (Example 31); details: after three weeks
Procedure: (§1) Concentrated formulations of the compounds of the invention were prepared by: • a) in the case of oils and waxy solids, dissolving the compound in toluene containing 7% v/v "Teric" N13 ("Teric" is a Trade MarK and "Teric" N13, a product of ethoxylation of nonylphenol, is available from ICI Australia Limited) and 3% v/v "Kemmat" SC15B ("Kemmat" is a Trade Mark and "Kemmat" SC15B is a formulation of calcium dodecylbenzene sulfonate); or • b) in the case of crystalline solids, adding 5 parts by weight of the compound and 1 part by weight of . ''Dyapol" PT ("Dyapol" is a Trade Mark and "Dyapol" PT is an anionic suspending agent) to 94 parts by weight of an aqueous solution containing 0.25% v/v of "Teric" N8 (a product of ethoxylation of nonylphenol) and ball-milling the mixture to produce a stable suspension. The emulsifiable concentrates and suspensions were then diluted with water to give an aqueous composition of the required concentration suitable for use in the evaluation of the pre-emergence and post-emergence herbicidal activity of the compounds of the invention.
(§2) The pre-emergent herbicidal activity of the compounds of the invention formulated as described in Example 30 was assessed by the following procedure.
(§3) The seeds of the test species were sown in rows 2 cm deep in soil contained in seed boxes. The monocotyledonous plants and the dicotyledonous plants were sprayed with the required quantity of a composition of the invention. Two duplicate seed Doxes were prepared in the same manner but were not sprayed with a composition of the invention and were used for comparison purposes. All the boxes were placed in a glasshouse, lightly watered with an overhead spray to initiate germination and then sub-irrigated as required for optimum plant growth. After three weeks the boxes were removed from the glasshouse and the effect of the treatment was visually assessed. The results are presented in Table 3 where the damage to plants is rated on a scale of from 0 to 3 where 0 represents from 0 to 25% damage, 3 represents 75 to 99% kill and 3+ represents 100% kill.
(§4) A dash (-) means that no experiment was carried out.

[2] = tested on: Wild Oats; test: Pre-emergence herbicidal activity (Example 31); details: after three weeks
Procedure: as §1, §2, §3, §4

[3] = tested on: Mustard; test: Post-emergence herbicidal activity (Example 32); details: 3 weeks after spraying
Procedure: as §1
(§5) The post-emergent herbicidal activity of the compounds of the invention formulated as described in Example 30 was assessed by the following procedure.
(§6) The seeds of the test species were sown in rows 2 cm deep in soil contained in seed boxes. The monocotyledonous plants and the dicotyledonous plants were sown in separate seed boxes in duplicate. The four seed boxes were placed in a glasshouse, lightly watered with an overhead spray to initiate germination and then sub-irrigated as required for optimum plant growth. After the plants had grown to a height of about 10 to 12.5 cm one box of each of the monocotyledonous plants and the dicotyledonous plants was removed from the glasshouse and sprayed with the required quantity of a composition of the invention. After spraying the boxes were returned to the glasshouse for further 3 weeks and the effects of the treatment was visually assessed by comparison with the untreated controls. The results are presented in Table 4 where the damage to plants is rated on a scale of from 0 to 3 where 0 represents 0 to 25% damage, 3 represents 75 to 99% kill and 3+ represents 100% kill. A dash (-) means that no experiment was carried out.

[4] = tested on: Wheat; test: Pre-emergence herbicidal activity (Example 31); parameters: key: 0-3 scale: 0 = 0-25% damage, 3 = 75-99% kill, 3+ = 100% kill; details: after three weeks
Procedure: as §1, §2, §3, §4

[5] = tested on: Ipomea; test: Post-emergence herbicidal activity (Example 32); details: 3 weeks after spraying
Procedure: as §1, §5, §6

[6] = tested on: Sunflower; test: Post-emergence herbicidal activity (Example 32); details: 3 weeks after spraying
Procedure: as §1, §5, §6

[7] = tested on: Wild Oats; test: Post-emergence herbicidal activity (Example 32); details: 3 weeks after spraying
Procedure: as §1, §5, §6

SMILES: CC(Oc1ccc(N(C)c2ccc(C(F)(F)F)cc2[N+](=O)[O-])cc1)C(=O)OC1CCCCC1 (stereo not drawn) [Compound 80]
- damage to plants, Jm ([1]; 1 kg/ha): 0 (0 represents from 0 to 25% damage)
- damage to plants, Jm ([1]; 5 kg/ha): 3 (3 represents 75 to 99% kill)
- damage to plants, Ot ([2]; 1 kg/ha): 1
- damage to plants, Ot ([2]; 5 kg/ha): 2

SMILES: CC(Oc1ccc(Nc2ccc(C(F)(F)F)cc2[N+](=O)[O-])cc1)C(=O)O (stereo not drawn) [Compound 46, 2[4-(2-Nitro-4-trifluoromethylanilino)phenoxy]-propionic acid]
- damage to plants, Ot ([2]; 1 kg/ha): 0 (0 represents from 0 to 25% damage)
- damage to plants, Ot ([2]; 5 kg/ha): 3 (3 represents 75 to 99% kill)
- damage to plants, Ms ([3]; 1 kg/ha): 0 (0 represents 0 to 25% damage)
- damage to plants, Ms ([3]; 5 kg/ha): 3 (3 represents 75 to 99% kill)

SMILES: C#CCN(c1ccc(OC(C)C(=O)OC)cc1)c1ccc(C(F)(F)F)cc1[N+](=O)[O-] (stereo not drawn) [Compound 81]
- damage to plants, Wh ([4]; 1 kg/ha): 0 (0 represents from 0 to 25% damage)
- damage to plants, Wh ([4]; 5 kg/ha): 3 (3 represents 75 to 99% kill)
- damage to plants, Ot ([2]; 1 kg/ha): 1
- damage to plants, Ot ([2]; 5 kg/ha): 2

SMILES: COC(=O)C(C)Oc1ccc(Nc2ccc(Cl)cc2Cl)cc1 (stereo not drawn) [Compound 22]
- damage to plants, Ip ([5]; 1 kg/ha): 0 (0 represents 0 to 25% damage)
- damage to plants, Ip ([5]; 5 kg/ha): 3+ (3+ represents 100% kill)
- damage to plants, Sf ([6]; 1 kg/ha): 0 (0 represents 0 to 25% damage)
- damage to plants, Sf ([6]; 5 kg/ha): 3+ (3+ represents 100% kill)

SMILES: COC(=O)C(C)Oc1ccc(N(C)c2ccc(Cl)cc2[N+](=O)[O-])cc1 (stereo not drawn) [Compound 27]
- damage to plants, Ot ([2]; 1 kg/ha): 0 (0 represents from 0 to 25% damage)
- damage to plants, Ot ([2]; 5 kg/ha): 3 (3 represents 75 to 99% kill)

SMILES: CC(Oc1ccc(Nc2ccc(Cl)cc2[N+](=O)[O-])cc1)C(=O)OC1CCCCC1 (stereo not drawn) [Compound 79]
- damage to plants, Ot ([2]; 1 kg/ha): 1
- damage to plants, Ot ([2]; 5 kg/ha): 2

SMILES: COC(=O)C(C)Oc1ccc(Nc2ccc(C)cc2[N+](=O)[O-])cc1 (stereo not drawn) [Compound 26]
- damage to plants, Jm ([1]; 1 kg/ha): 0 (0 represents from 0 to 25% damage)
- damage to plants, Jm ([1]; 5 kg/ha): 3 (3 represents 75 to 99% kill)

SMILES: COC(=O)C(C)Oc1ccc(N(C)c2ccc(Cl)cc2Cl)cc1 (stereo not drawn) [Compound 1, Methyl 2-[4-(2,4-dichloro-N-methylanilino)phenoxy]-propionate]
- damage to plants, Ot ([7]; 1 kg/ha): 0 (0 represents 0 to 25% damage)
- damage to plants, Ot ([7]; 5 kg/ha): 3 (3 represents 75 to 99% kill)

SMILES: COC(=O)C(C)Oc1ccc(Nc2ccc(C(F)(F)F)cc2[N+](=O)[O-])cc1 (stereo not drawn) [Compound 21, Methyl 2-[4-(2-nitro-4-trifluoromethylanilino)phenoxy]-propionate]
- damage to plants, Wh ([4]; 0.5 kg/ha): 0 (0 represents from 0 to 25% damage)
- damage to plants, Wh ([4]; 5 kg/ha): 3+ (3+ represents 100% kill)
- damage to plants, Ms ([3]; 1 kg/ha): 0 (0 represents 0 to 25% damage)
- damage to plants, Ms ([3]; 5 kg/ha): 3 (3 represents 75 to 99% kill)
- damage to plants, Sf ([6]; 1 kg/ha): 0 (0 represents 0 to 25% damage)
- damage to plants, Sf ([6]; 5 kg/ha): 3 (3 represents 75 to 99% kill)
